Reference: PubChem BioAssay AID1159614 (National Center for Advancing Translational Sciences (NCATS), 2016)
Among all 45,000 compounds or so, about 65 (0.1%) were called active. Calls come from the whole dose curve; as a rule, active = well fitted activation curve with a large enough effect; inconclusive = small, poorly fitted or top-dose-only effect; inactive = no such curve, though single readings can be large or run the other way. Some of the results follow.

Target: Galactocerebrosidase (Homo sapiens) (UniProt P54803)
Assay: A Novel Cell-Based Assay to Identify Small Molecules for B -Galactocerebrosidase; note: 0% is about no effect; nearly all actives have a fitted effect of over 65% in size
Details: 145M-Twi-hGALC-G270D cells (Twitcher mouse brain line with human GALC G270D), HMU-beta-Gal fluorescence, 48 h; series mostly up to 57.5 µM; activation: at the top concentration
In short: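 Live 145M-Twi cells (Twitcher mouse brain-derived, GALC-null) stably expressing human GALC-G270D, with a wild-type GALC line, were compound-treated. Residual GALC activity was then read as fluorescence from 0.1 mM final HMU-β-gal at pH 5.2; higher signal means activation.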

UniProt P54803, sequence (P54803 whole entry, looked up): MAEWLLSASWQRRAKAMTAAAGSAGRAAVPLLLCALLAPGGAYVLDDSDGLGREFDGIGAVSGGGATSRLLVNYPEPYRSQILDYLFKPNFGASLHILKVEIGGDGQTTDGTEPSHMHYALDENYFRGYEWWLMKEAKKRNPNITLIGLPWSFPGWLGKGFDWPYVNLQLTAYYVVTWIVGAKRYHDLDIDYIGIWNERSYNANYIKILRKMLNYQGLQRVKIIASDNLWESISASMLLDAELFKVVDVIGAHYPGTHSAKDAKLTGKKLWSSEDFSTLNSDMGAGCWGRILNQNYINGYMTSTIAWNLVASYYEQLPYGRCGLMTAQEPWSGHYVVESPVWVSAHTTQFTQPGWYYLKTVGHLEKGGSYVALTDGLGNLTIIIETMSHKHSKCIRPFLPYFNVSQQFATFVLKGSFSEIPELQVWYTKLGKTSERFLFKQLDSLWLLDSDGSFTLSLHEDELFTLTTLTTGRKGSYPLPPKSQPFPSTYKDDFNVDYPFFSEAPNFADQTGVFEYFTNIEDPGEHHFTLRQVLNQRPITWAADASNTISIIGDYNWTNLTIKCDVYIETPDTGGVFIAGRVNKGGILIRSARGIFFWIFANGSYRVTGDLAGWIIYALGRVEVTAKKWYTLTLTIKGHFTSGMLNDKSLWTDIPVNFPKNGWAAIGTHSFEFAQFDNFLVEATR

activation, inactive:
Cc1ccc(OCC(=O)N(Cc2sccc2C)C2CCS(=O)(=O)C2)cc1 (stereo unspecified) -13.7%, O=C1c2oc3ccccc3c(=O)c2C(c2cccc(Br)c2)N1c1ccccn1 (stereo unspecified) -7.68%, Cc1ccccc1NC(=O)Nc1cccs1 -5.69%, CNC(=O)c1ccc(NC(=O)COc2ccc(-c3nn(C)c(=O)c4ccccc34)cc2)cc1 -10.5%, CCn1ccnc1CC1COc2ccccc2O1 (stereo unspecified) -18.8%, CCCCN(C)C(=O)Cn1cnc2sc(C)c(S(=O)(=O)N3CCN(c4ccccc4OC)CC3)c2c1=O -12.8%, CCOc1ccc(NC(=O)Cn2c(CCC(=O)O)ccc2-c2ccc(C)cc2)cc1 -7.33%, Clc1ccc(Nc2nc(-c3ccccc3)c3cc(Cl)ccc3n2)cc1 2.75%, COc1ccc(-c2noc(CSc3nnc(-c4ccncc4)n3-c3ccc(C)c(C)c3)n2)cc1 -11.8%, CCOC(=O)c1[nH]c2ccccc2c1NC(=O)c1cc(OCC)c(OCC)c(OCC)c1 -14.8%, Cc1cc(=O)n2nc(N3CCC(C(=O)NCc4ccc(Cl)cc4)CC3)sc2n1 -17.7%, Cc1ccc2onc(CC(=O)N3CCN(c4cccc(C)c4C)CC3)c2c1 -11.5%, Cc1ccc(C)c(CN2C(=O)c3ccccc3Sc3ccc(C(=O)NCc4ccc5c(c4)OCO5)cc32)c1 -14.6%, COc1ccc(Cn2c(CO)cnc2SCC(=O)NCc2ccco2)cc1 -9.19%, COc1cc(NC(=O)CC(C)S(=O)(=O)c2cc3c4c(c2)CCN4C(=O)CC3)cc(OC)c1 (stereo unspecified) -14.2%, Cc1ccccc1C(=O)Nc1cccc(C(=O)OCc2cc(=O)n3nc(C4CC4)sc3n2)c1 -8.63%, COc1ccc(-c2nc(Cn3c(SCc4ccc(F)cc4)nc4cccnc43)c(C)o2)cc1 -10.4%, CC(=O)c1cccc(NC(=O)c2ccc3nc(C(C)C)oc3c2)c1 -6.06%, COc1ccc(NC(=O)c2c(NC(=O)c3cccc(C)c3)sc3c2CCCC3)cc1 -8.69%, COc1cc2nc(SCC(=O)Nc3cccc(C)c3)n3nc(-c4ccccc4)nc3c2cc1OC -21.6%, Cc1ccc([N+](=O)[O-])cc1S(=O)(=O)N1CCn2cccc2C1c1ccc(F)c(F)c1 (stereo unspecified) -11.3%, COc1ccc(N2CCN(C(=O)c3nn(-c4ccc(C)cc4)c(=O)n(C)c3=O)CC2)cc1 -21.4%, Cc1ccc(CSc2nc3c(c(=O)[nH]2)C(c2cccc(F)c2F)CC(=O)N3)cc1 (stereo unspecified) -5.21%, CCOC(=O)c1cc(-c2ccc(OC)cc2)nn1Cc1ccccc1 1.23%, Cc1ccc(OCC(=O)Nc2ccc3nc(SCC(=O)N(C)c4ccccc4)sc3c2)cc1 -37.1%, COc1ccc(NC(=O)c2sc3nc[nH]c(=O)c3c2C)cc1OC -9.35%, COc1cc2ncc3c(-c4ccccc4)nn(-c4ccc(C)cc4)c3c2cc1OC -8.24%, Cn1nnnc1SCCNCc1ccccc1Cl -3.43%, CC(C)c1ccc(NC(=O)C(Cc2ccccc2)NS(=O)(=O)c2ccc3c(c2)CCC(=O)N3)cc1 (stereo unspecified) -25.8%, COc1cccc(CNC(=O)CN(C)S(=O)(=O)c2ccc3c(c2)c(=O)n(C)c(=O)n3C)c1 -2.78%, COc1ccc(Cl)cc1NC(=O)Cn1cc(S(=O)(=O)Cc2cccc(Cl)c2)c2ccccc21 -11.8%, N#C/C(=C\c1ccc(-c2ccc(C(=O)O)cc2)o1)c1nc2ccccc2[nH]1 -8.81%, CN1CCc2c(sc3c2C(=O)NC(c2ccc(OC(=O)c4ccc(Cl)cc4)cc2)N3)C1 (stereo unspecified) 2.03%, CC(=O)N1CCc2cc(Br)cc(S(=O)(=O)CCC(=O)NCCc3ccc(Cl)cc3)c21 -3.92%, CC(C)=CCC/C(C)=C/CO -14.2%, CCCCOc1ccc(C(=O)N(Cc2nc(-c3ccc(Cl)cc3)no2)C(C)C)cc1 -17.7%, Cc1ccc(Cn2c(C)c(CNCc3ccc(OC(C)C)cc3)c(C(=O)O)c2C)cc1 -5.57%, COc1ccc(CC(=O)NCCc2sc(-c3cccc(F)c3)nc2C)cc1 -4.05%, CCOc1ccc(CCNC(=O)c2ccc(CS(=O)Cc3ccc(Cl)cc3)o2)cc1 (stereo unspecified) -40.6%, Cn1c(=O)oc2cc(S(=O)(=O)N3CCC(C(=O)N4CCN(c5cccc(Cl)c5)CC4)CC3)ccc21 -33.7%, CC(C)c1ccc(NC(=O)CCNS(=O)(=O)c2cccc3nsnc23)cc1 10.7%, CCC(C(=O)OCCN(CC)CC)c1ccccc1 (stereo unspecified) -12.5%, CN1CCN(CCC(=O)Nc2ccc(Cl)cc2)CC1 -6.94%, COc1ccc(C(=O)Oc2ccc(C(c3c(C)[nH][nH]c3=O)c3c(C)[nH][nH]c3=O)cc2OC)cc1 -23.1%, CCOc1ccc(NC(=O)c2oc3ccccc3c2NC(=O)Cc2cccc(C)c2)cc1 0.13%, COC(=O)Nc1nc2ccc(S(=O)c3ccccc3)cc2[nH]1 (stereo unspecified) -13.5%, COc1ccc(OC)c(NS(=O)(=O)c2ccc(Br)s2)c1 1.92%, CCn1cc(C(=O)O)c(=O)c2cc3c(cc21)OCO3 -6.37% [at 23.8 µM], O=C(COc1ccc(Cl)cc1)NCCc1csc(-c2cccc(F)c2)n1 -18%, Cc1ccc(NC(=O)Cn2c(=O)ccc3cc(S(=O)(=O)N4CCC(C)CC4)ccc32)cc1C -12.1%, CCCN1C(C(=O)c2ccccc2)=C(OC(=O)c2ccc(C)cc2)c2ccccc2S1(=O)=O -7.61%, Cc1cccc(NC(=O)CSc2nc(=O)n(Cc3cccnc3)c3c2CCC3)c1 2.06%, Cn1ncc(C(=O)N2CCN(c3ccccc3F)CC2)c1C1CCN(C(=O)OC(C)(C)C)CC1 -7.53%, CC(=O)c1ccc(NC(=O)CSc2nccn2Cc2ccc3c(c2)OCO3)cc1 -13.5%, Cc1cc(SCC(=O)NCc2ccc(F)cc2)nc(=O)[nH]1 -2.65%, COc1cc(NC(=O)c2ncn(-c3ccccc3)n2)cc(OC)c1 -15.5%, Cc1ccc(NC(=O)CSc2nc(-c3ccco3)cc(C(F)(F)F)n2)cc1C -16.4%, O=C(COCc1cc(-c2ccco2)on1)Nc1cccc(Cl)c1Cl 2.77%, COc1ccc(C2N3CC4(C)CN2CC(c2ccccc2)(C3)C4=O)cc1 (stereo unspecified) -11.2%, Cc1ccc(NC(=O)c2nc(-c3ccncc3)no2)c(Cl)c1 -13.1%, CCOc1ccccc1-n1nnc(S(=O)(=O)c2ccc(C)cc2)c1N 5.52%, CCCCN(CC)CCCNC(=O)c1cn(CC)c2ccc(S(=O)(=O)N3CCOCC3)cc2c1=O -6.1%, O=C(c1cc(F)cc(F)c1)N1CCC(c2nc(-c3ccc(S(=O)(=O)N4CCCC4)cc3)no2)CC1 -4.11%, COc1ccc(OC)c(CCNC(=O)c2cc3c(=O)n(C)c4ccccc4c3n2C)c1 -10.6%, CCOc1ccc(NC(=O)CN2CCN(c3ccc(Cl)cc3)CC2)cc1 -8.24%, O=C(NCC1CCN(Cc2ccc(F)cc2)CC1)c1cc2ccc3cccnc3c2[nH]1 -14.1%, CCOc1ccc(NC(=O)Cn2c(=O)oc3cc(S(=O)(=O)N4CCC(C)CC4)ccc32)cc1 -6.33%, Cc1cc(=O)n2nc(N(C)CC(=O)NCc3ccc(Cl)cc3)sc2n1 -5.5%, CCOC(=O)c1cccc(NC(=O)C2CCCN(S(=O)(=O)c3cc(Br)cc4c3N(C(=O)CC)CC4)C2)c1 (stereo unspecified) -21.5%, COc1ccc(CN(C(=O)Cc2coc3ccc(C)cc23)C2CCS(=O)(=O)C2)cc1 (stereo unspecified) -15.8%, CCc1cccc(NC(=O)CCN2C(=O)c3ccccc3Sc3ncccc32)c1 1.92%, O=C(Cn1c(=O)nc(-c2ccccc2)c2cc(Cl)ccc21)NCCc1ccccc1 -9.26%, Cc1cc(=O)oc2cc(O[C@@H]3SC[C@@H](O)[C@H](O)[C@H]3O)ccc12 -14.3%, COc1cc(Cl)c(C)cc1NC(=O)c1cc2c(s1)-c1c(C)cccc1OC2 -8.77%, Cc1sc2ncn(CC(=O)N3CCN(c4ccc(F)cc4)CC3)c(=O)c2c1S(=O)(=O)N1CCN(c2ncccn2)CC1 -5.79%, Cc1cc2[nH]c(=O)c(=O)[nH]c2cc1S(=O)(=O)Nc1cccc(C(F)(F)F)c1 -10.3%, CCc1nn(CC(=O)N2CCN(c3cccc(C)c3C)CC2)c(=O)c2cc3sccc3n12 4.69%, CCC(=O)N1CCc2cc(S(=O)(=O)NC(CC(C)C)C(=O)NCc3ccc(C)cc3)ccc21 (stereo unspecified) -10.6%, Cc1ccc(O)c(-c2n[nH]c3c2C(c2ccccc2F)N(Cc2ccco2)C3=O)c1 (stereo unspecified) -16.8%, Cc1cc(C)c(NC(=O)Cc2ccc(-n3c(C)nc4cccnc43)cc2)c(C)c1 11.1%, C=CC[N+]1([C@H]2C[C@H]3[C@@H]4CC[C@H]5C[C@H](OC(C)=O)[C@@H](N6CCCCC6)C[C@]5(C)[C@H]4CC[C@]3(C)[C@H]2OC(=O)CC)CCCCC1 -8.82%, COc1ccc(CNC(=O)CS(=O)(=O)c2cccc3nsnc23)cc1 12.8%, CCOc1cc(C2C(C(=O)OC)=C(C)NC3=C2C(=O)c2ccccc23)cc(Br)c1OCC (stereo unspecified) 10.6%, Cc1ccc(OC(=O)CSc2nnc(-c3cccs3)o2)c(C)c1 -16.8%, COc1ccc(Cl)cc1C(=O)NCc1nc(-c2cccc(C)c2)no1 -6.27%, O=C(c1ccc([N+](=O)[O-])cc1)N1c2ncnn2C2(CCCCC2)[C@@H]2CCCC[C@@H]21 -8.23%, CC1=C(C(=O)OC2CCCCCC2)C(c2ccc(Cl)cc2)CC(=O)N1 (stereo unspecified) -1.4%, Cc1ccc2nc(-c3ccco3)c(Nc3ccc4c(c3)OCCO4)n2c1 -12.2%, CC(=O)Nc1ccc(NC(=O)C2Cc3ccccc3N2C(=O)c2ccccc2)cc1 (stereo unspecified) -12.6%, COc1ccc(Cn2c(CCC(=O)Nc3ccccc3OC)nc3cccnc32)cc1 -19.8%, Cc1oc2ccc(O)c(CN3CCCC(C)C3)c2c1C(=O)Nc1ccccc1 (stereo unspecified) -15.5%, CC(C)OCCCn1c(=O)c2ccccc2n2c(-c3ccccc3F)nnc12 -13.9%, COc1ccc2c(c1)c(=O)c(C(=O)c1ccc(Cl)cc1)cn2CC(=O)Nc1ccc2c(c1)OCCO2 5.51%, O=C1CC2(CCCC2)CC(=O)N1CCCCN1CCN(c2ncccn2)CC1 -12.4%, CCc1c(C)nc2nc(-c3ccccc3)nn2c1NCc1ccc(C)cc1 -0.353%, COc1cccc2[nH]c(C(=O)NCc3ccc4c(c3)CCN4C(=O)c3ccc(F)cc3)cc12 -15%
